This is an account of results in PubChem BioAssay AID1645887 (National Center for Advancing Translational Sciences (NCATS), 2021).

Where “and” joins values, the source holds several entries; their conditions need not be identical. Equal entries are not always repeated. The campaign covered roughly 16,000 compounds. About 40 (0.2%) were called active. About 1% were inconclusive and are not listed. The call rests on the fitted dose curve; in most records, active means well fitted activation curve with a large enough effect; inconclusive means small, poorly fitted or top-dose-only effect, or another doubt; inactive means no such curve, though single readings can be large or run the other way. Some of the results follow.
On the % scale 0 is the no-effect control and ±100 the full control effect.

Chain of UniProt Q8WZA2 (Q8WZA2 whole entry, looked up): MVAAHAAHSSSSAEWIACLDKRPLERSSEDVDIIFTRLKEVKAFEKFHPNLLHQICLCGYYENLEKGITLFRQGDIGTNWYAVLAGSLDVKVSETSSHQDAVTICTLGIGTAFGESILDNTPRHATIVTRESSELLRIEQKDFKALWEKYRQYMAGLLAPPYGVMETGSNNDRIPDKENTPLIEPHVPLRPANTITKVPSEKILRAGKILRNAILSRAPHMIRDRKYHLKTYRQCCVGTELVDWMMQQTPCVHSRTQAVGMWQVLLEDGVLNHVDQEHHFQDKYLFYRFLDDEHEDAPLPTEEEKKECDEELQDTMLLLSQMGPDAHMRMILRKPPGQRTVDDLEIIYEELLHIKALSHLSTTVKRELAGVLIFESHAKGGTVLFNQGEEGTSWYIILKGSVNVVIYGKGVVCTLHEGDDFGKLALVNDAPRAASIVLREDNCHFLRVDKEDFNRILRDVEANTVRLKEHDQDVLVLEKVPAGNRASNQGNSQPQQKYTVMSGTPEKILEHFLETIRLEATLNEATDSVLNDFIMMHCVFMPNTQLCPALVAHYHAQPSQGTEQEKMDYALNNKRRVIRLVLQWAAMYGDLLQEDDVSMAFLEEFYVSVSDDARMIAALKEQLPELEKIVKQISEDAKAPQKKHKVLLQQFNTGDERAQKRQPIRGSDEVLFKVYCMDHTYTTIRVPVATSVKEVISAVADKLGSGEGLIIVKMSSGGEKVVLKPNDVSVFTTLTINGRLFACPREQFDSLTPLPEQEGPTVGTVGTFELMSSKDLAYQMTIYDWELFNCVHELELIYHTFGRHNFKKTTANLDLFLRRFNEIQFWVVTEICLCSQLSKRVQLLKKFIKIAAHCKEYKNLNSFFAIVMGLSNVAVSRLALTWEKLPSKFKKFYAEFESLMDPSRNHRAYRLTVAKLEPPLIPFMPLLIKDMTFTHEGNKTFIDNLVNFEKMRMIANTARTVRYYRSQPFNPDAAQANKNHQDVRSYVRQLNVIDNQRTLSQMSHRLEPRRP

For this test, the target named is Rap guanine nucleotide exchange factor 4 (Homo sapiens) (UniProt Q8WZA2). The test can be described thus: Validation qHTS for agonist of cAMP-regulated guanine nucleotide exchange factor 4 (EPAC2).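 Further: exchange makes BODIPY-GDP fluorescence drop when released from Rap1B; series mostly up to about 150 µM.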 The note with it: EPAC2 Rap1B BODIPY-GDP exchange, fluorescence; activation: active compounds read high. In outline:
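Signal normalized against 6.5 mM cAMP as agonist control. Mix of EPAC2 (100 nM), RAP1B-BODIPY-GDP (250 nM) and GDP (50 uM) was read kinetically at 480/540 nm, every 5 min over 30 min, after 5 min room-temperature incubation with compound.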
For the compound `CC1=C(C)C(=O)C(CCCCC#CCCCC#CCO)=C(C)C1=O`, the activation is inactive: -22.4% and inactive: -7.65%. On to `O=c1c(-c2ccc(F)cc2)nc2cnc(Nc3ccccc3)nc2n1C1CC1`, for which the activation was inactive: -3.29%.

As to `COC(=O)[C@H](C)NS(=O)(=O)C1CC1`, the activation is inactive: -14%. Consider `COc1ccc(NC(=O)N2CCC3(CC2)CCN(C(=O)c2ccco2)CC3)cc1`, for which the activation is inactive: -8.88%. The figure for `CN(CCOc1ccc(NS(C)(=O)=O)cc1)CCc1ccc(NS(C)(=O)=O)cc1` is inactive: -7.59%; for `COc1cc(=O)n2c(c1C(=O)NC(C)c1ccco1)CCN(C(=O)c1ccnc(Cl)c1)CC2` (stereo not drawn) it is inactive: -22.1%. Regarding `COCC(=O)N1CCC2(CCN(Cc3nccs3)CC2)CC1`, the activation was inactive: -10.2%. For `Cc1c(N)nc(C(CC(N)=O)NCC(N)C(N)=O)nc1C(=O)NC(C(=O)NC(C)C(O)C(C)C(=O)NC(C(=O)NCCc1nc(-c2nc(C(=O)NCCCN[C@@H](C)c3ccccc3)cs2)cs1)C(C)O)C(O[C@@H]1O[C@@H](CO)[C@@H](O)[C@H](O)[C@@H]1O[C@H]1O[C@H](CO)[C@@H](O)[C@H](OC(N)=O)[C@@H]1O)c1cnc[nH]1` (stereo partly drawn) the value was inactive: -6.84%; for `Cc1noc(C)c1C(=O)N1CCC2(CC1)CN(c1ccccc1)C2`, inactive: 6.53%. For `COc1ccc(/C=C/C(=O)c2ccc(C)s2)cc1` the value was inactive: 3.58%; for `O=C(O)[C@@H]1C[C@@H](C(=O)O)N1`, inactive: 4.99% and inactive: 4.66% and inactive: -6.1%. For `Fc1ccc(Nc2ccnc(-c3ccccc3C(F)(F)F)n2)cc1`, the activation is inactive: -20.1%. As to `CS(=O)(=O)N1CCC2(CC1)CN(C(=O)Nc1ccccc1)C2`, the activation is inactive: -0.788%. With `COc1ccccc1CCn1c(=O)c(-c2ccc(F)c(F)c2)nc2cncnc21`, the activation was inactive: 1.69%.

Consider `OCC1OC(Oc2cccc3cccnc23)C(O)C(O)C1O` (stereo not drawn), for which the activation was inactive: 5.84%.

Consider `COc1ccccc1CNc1nc(-c2c(C)noc2C)nc2ccccc12`, for which the activation was inactive: 5.53%. The figure for `CC(C)=CCn1cnc2c1c(=O)n(C)c(=O)n2C` is inactive: -1.98%; for `COc1ccccc1-c1nc(NCc2ccccc2)c2ccccc2n1` it is inactive: -17.3%; for `CN(C)CCCSc1ccccc1NC(=O)/C=C\c1ccccc1` it is inactive: -24.6%. For `Cc1ncc2c(c1CNS(=O)(=O)N(C)C)CCN(C(=O)/C=C/c1ccccc1F)C2` the value was inactive: -1.62%; for `Cc1cccc(CNc2nc(-c3ccccc3CN(C)C)nc3ccccc23)c1`, inactive: -18.7%. For `O=S1(=O)CCOC[C@H](CC2CCCCC2)N1Cc1cccc(F)c1` the value was inactive: -21%; for `O=C(O)P(=O)(O)O`, inactive: -7.99%; for `COc1ccc(-n2c(=O)cnc3cnc(Oc4cccc(Cl)c4)nc32)cc1`, inactive: -3.9%. As to `CC(C)C(NC(=O)c1ccccn1)c1nnc2n1CCN(Cc1ccc3ccccc3c1)CC2` (stereo not drawn), the activation is inactive: -12.6%. With `CC(C)c1c(C(=O)NCC(C)(C)N2CCOCC2)cnn1-c1nccc(-c2cccs2)n1`, the activation was inactive: 0.997%.

Take `CCCN(C/C=C\I)[C@@H]1CCc2cccc(O)c2C1`: the activation is inactive: -9.81%.

With `COC(=O)c1ccc2nc3c(cc2c1)[C@@H]1CCN2C(=O)CCC[C@H](C3)[C@H]12`, the activation is inactive: -19.5%. The figure for `Cc1nc2cnc(N3CCNCC3)nc2n(Cc2cccs2)c1=O` is inactive: -14.3%; for `O=C(C(=O)N1CCOc2ccc(CN3CCN(Cc4ccccn4)CC3)cc2C1)c1ccccc1` it is inactive: 5.63%; for `CCCCCCCCCCCCCCCC[N+](C)(C)CCN(Cc1ccc(OC)cc1)c1ncccn1` it is inactive: -15.4%. With `CN(C)CCCSc1ccccc1NC(=O)/C=C/c1ccccc1`, the activation is inactive: -12.7%.

With `COc1ccc(Oc2ncc3nc(-c4ccccc4)c(=O)n(CCC#N)c3n2)cc1`, the activation was inactive: -0.503%. Regarding `NC(C(=O)O)c1cccc(O)c1` (stereo not drawn), the activation was inactive: 11.5%. In the case of `COc1cccc(C(=O)N(Cc2cc3cc4c(cc3nc2N(C)C)OCO4)CC2CCCO2)c1` (stereo not drawn), the activation is inactive: 2.19%. For `N[C@H](C(=O)O)[C@H](O)C(=O)O` the value was inactive: -3.76% and inactive: 1.62% and inactive: -3.27%; for `COc1ccccc1N1CCN(c2nc(CNC(=O)c3sc(C)nc3C)nc3ccccc23)CC1`, inactive: -3.75%; for `CC(C)C[C@H](NC(=O)[C@@H](O)[C@H](N)Cc1ccccc1)C(=O)O`, inactive: -2.24% and inactive: 1.65% and inactive: -13.1%. The figure for `Cc1cc(C(=O)N2CCOc3ccc(CN4CCC(Oc5cccnc5)CC4)cc3C2)c(C)o1` is inactive: -13.2%. The figure for `O=C(O)CN(CCOCCOCCN(CC(=O)O)CC(=O)O)CC(=O)O` is inactive: 6.68% and inactive: -10.1%; for `COc1cc([C@@H]2c3cc4c(cc3[C@H](O)[C@H]3COC(=O)[C@H]23)OCO4)cc(OC)c1OC` it is inactive: -3.72% and inactive: -12% and inactive: -7.05%. For the compound `O=P(O)(O)C(O)(Cc1cnc2ccccn12)P(=O)(O)O`, the activation is inactive: -12.9%.

`Cc1ccc(S(=O)(=O)NC(=O)NC2CCCCCCC2)cc1`: the activation is inactive: 6.91%. The figure for `O=C1CCCCN1CCC(=O)N1CCOc2ccc(C(O)C3CCCCC3)cc2C1` (stereo not drawn) is inactive: -12.1%; for `COC(=O)[C@H]1[C@H]2C[C@@H]3c4[nH]c5cc(OC)ccc5c4CCN3C[C@H]2C[C@@H](OC(=O)c2cc(OC)c(OC)c(OC)c2)[C@@H]1OC` it is inactive: -8.15% and inactive: -48.6%; for `COc1cc2c(cc1OC)-c1cc3ccc(OC)c(OC)c3c[n+]1CC2` it is inactive: 1.26%. For `COc1cccc(-c2ccc3ncnc(NC4CC4)c3c2)c1` the value was inactive: -13.4%; for `COc1ccc(C2c3cc(OC)c(OC)cc3Cc3c4cc(OC)c(OC)cc4cc[n+]32)cc1OC` (stereo not drawn), inactive: 0.293%.

As to `COc1ccccc1CNc1ncnc2ccc(-c3ccccc3CN(C)C)cc12`, the activation is inactive: -6.07%. Regarding `Cc1ncc2c(c1CNS(=O)(=O)N(C)C)CCN(C(=O)c1c(F)cccc1F)C2`, the activation was inactive: -10.7%. The figure for `Nc1c2c(nc3c1CCC3)CCCC2` is inactive: -0.847%.

Turning to `CCOC(=O)Nc1ccc2c(c1)N(C(=O)CCN1CCOCC1)c1ccccc1S2`, the activation is inactive: -6.22%. As to `CC(NC(=O)C1CCOCC1)c1nnc2n1CCN(Cc1cc3c(cc1Cl)OCO3)CC2` (stereo not drawn), the activation is inactive: -1.84%. As to `O=C1[C@H](Cc2ccccc2)NCCCC[C@@H](c2ccc(Cl)cc2)N1Cc1ccccc1`, the activation is inactive: -33.3%. `O=c1c(-c2ccc(O)cc2)coc2cc(O)cc(O)c12`: the activation is inactive: -38.3% and inactive: -15.3% and inactive: -23.9%. As to `COCCn1c(=O)c(C)nc2cnc(OC)nc21`, the activation is inactive: -6.26%.

Take `O=c1cc(-c2cccc(O)c2O)oc2ccccc12`: the activation is inactive: 1.22%. For `Cc1cn(C2CC(N=[N+]=[N-])C(CO)O2)c(=O)[nH]c1=O` (stereo not drawn) the value was inactive: -9.96%.

As to `N[C@H](Cc1ccccc1)C(=O)O`, the activation is inactive: -8.69%. Consider `N=C(N)n1cccn1`, for which the activation was inactive: -2.46%.

As to `O=C(c1ccco1)N1CCC2(CCCN(Cc3ccccc3)C2)CC1`, the activation was inactive: 0.192%. For `NCCO` the value was inactive: 14.1%; for `Cc1ccc2c(CC(=O)N3CCOc4ccc(CN5C[C@@H](C)O[C@@H](C)C5)cc4C3)cc(=O)oc2c1`, inactive: -1.78%.

As to `COc1cccc(C2(CC(=O)N3CCCOc4c(cccc4OC)C3)CC(=O)N(C)C2=O)c1` (stereo not drawn), the activation was inactive: -1.55%. For `O=S1(=O)CCOCCCN1Cc1cccc(Cl)c1` the value was inactive: -19.7%. On to `O=C1C=CC(=C(c2ccc(O)cc2)c2ccc(O)cc2)C=C1`, for which the activation is inactive: 12.8%.

For `O=C(NCCN1Cc2ccccc2OC(c2ccsc2)C1)c1cncs1` (stereo not drawn), the activation was inactive: -9.93%.

Turning to `COC(=O)[C@@H]1C[C@@H](NC(=O)c2ccc(C(F)(F)F)cc2)CN1Cc1cccc(O)c1`, the activation was inactive: -2.93%. Turning to `CC(O)(COc1ccccc1)c1ccc2c(c1)CN(Cc1cccnc1)CCO2` (stereo not drawn), the activation was inactive: -12.7%.

For the compound `CCCCCCN(CCCCCC)C(=O)Cc1c(-c2ccc(F)cc2)[nH]c2ccccc12`, the activation was inactive: 4.82% and inactive: 12.7% and inactive: 15.6%. On to `CCN(CC)CCNC(=O)c1ccc(NC(C)=O)cc1`, for which the activation was inactive: -8.77% and inactive: -17%.

Turning to `Cc1noc(C)c1C(=O)N1CCC2(CCCN(Cc3nccs3)C2)CC1`, the activation is inactive: -19%. For `N[C@@H](Cc1cnc[nH]1)C(=O)O` the value was inactive: -17.5% and inactive: -3.93%. Turning to `Cc1cc(=O)c2c(O)c3c(O)cc(O)c4c5c(O)cc(O)c6c(O)c7c(=O)cc(C)c8c1c2c(c34)c(c65)c78`, the activation was inactive: -2.22%.

With `CN(C)c1ccc(C=O)cc1Cl`, the activation is inactive: -30.9%. Turning to `Cc1c(C(=O)NCC(C)C)sc2ncnc(NCC3CCCO3)c12` (stereo not drawn), the activation was inactive: -2.12%. For `CO[C@H]1[C@H](NC(=O)c2ccncc2)c2ccccc2C12CCN(C(=O)c1ccoc1)CC2` the value was inactive: -8.58%. On to `CCC(=O)NS(=O)(=O)c1ccc(-c2c(-c3ccccc3)noc2C)cc1`, for which the activation is inactive: -11.3%. `COc1ccccc1C1CN(Cc2cccc(C)n2)Cc2ccccc2O1` (stereo not drawn): the activation is inactive: 5.88%. For `CC(=O)NCCNC(=O)c1cnn(-c2nccc(-c3cc(C)sc3C)n2)c1C` the value was inactive: -6.72%; for `CNC[C@H](O)c1cccc(O)c1`, inactive: -33% and inactive: -17.1%. The figure for `Cc1c(C(=O)NCCc2ccccn2)cnn1-c1nccc(-c2cccs2)n1` is inactive: -17%; for `N=C(N)SCCc1cnc[nH]1` it is inactive: -18.2% and inactive: 9.87% and inactive: -3.01%.
